Experimental data: paper PMC4336329 (PLoS ONE, 2015)
About 14,000 (4.5%) of roughly 310,000 compounds showed an effect of 50% or more. The effect is printed as a negative number. This is one part of the list.

Biological target: human ether-à-go-go-related gene (hERG) potassium channel (human, UniProt Q12809)
Test: primary screen, population patch clamp on CHO cells stably expressing hERG
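Note: peak tail current of the secondary pulse compared with the same well before compound.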

Sequence of human ether-à-go-go-related gene (hERG) potassium channel (Q12809 whole entry, looked up): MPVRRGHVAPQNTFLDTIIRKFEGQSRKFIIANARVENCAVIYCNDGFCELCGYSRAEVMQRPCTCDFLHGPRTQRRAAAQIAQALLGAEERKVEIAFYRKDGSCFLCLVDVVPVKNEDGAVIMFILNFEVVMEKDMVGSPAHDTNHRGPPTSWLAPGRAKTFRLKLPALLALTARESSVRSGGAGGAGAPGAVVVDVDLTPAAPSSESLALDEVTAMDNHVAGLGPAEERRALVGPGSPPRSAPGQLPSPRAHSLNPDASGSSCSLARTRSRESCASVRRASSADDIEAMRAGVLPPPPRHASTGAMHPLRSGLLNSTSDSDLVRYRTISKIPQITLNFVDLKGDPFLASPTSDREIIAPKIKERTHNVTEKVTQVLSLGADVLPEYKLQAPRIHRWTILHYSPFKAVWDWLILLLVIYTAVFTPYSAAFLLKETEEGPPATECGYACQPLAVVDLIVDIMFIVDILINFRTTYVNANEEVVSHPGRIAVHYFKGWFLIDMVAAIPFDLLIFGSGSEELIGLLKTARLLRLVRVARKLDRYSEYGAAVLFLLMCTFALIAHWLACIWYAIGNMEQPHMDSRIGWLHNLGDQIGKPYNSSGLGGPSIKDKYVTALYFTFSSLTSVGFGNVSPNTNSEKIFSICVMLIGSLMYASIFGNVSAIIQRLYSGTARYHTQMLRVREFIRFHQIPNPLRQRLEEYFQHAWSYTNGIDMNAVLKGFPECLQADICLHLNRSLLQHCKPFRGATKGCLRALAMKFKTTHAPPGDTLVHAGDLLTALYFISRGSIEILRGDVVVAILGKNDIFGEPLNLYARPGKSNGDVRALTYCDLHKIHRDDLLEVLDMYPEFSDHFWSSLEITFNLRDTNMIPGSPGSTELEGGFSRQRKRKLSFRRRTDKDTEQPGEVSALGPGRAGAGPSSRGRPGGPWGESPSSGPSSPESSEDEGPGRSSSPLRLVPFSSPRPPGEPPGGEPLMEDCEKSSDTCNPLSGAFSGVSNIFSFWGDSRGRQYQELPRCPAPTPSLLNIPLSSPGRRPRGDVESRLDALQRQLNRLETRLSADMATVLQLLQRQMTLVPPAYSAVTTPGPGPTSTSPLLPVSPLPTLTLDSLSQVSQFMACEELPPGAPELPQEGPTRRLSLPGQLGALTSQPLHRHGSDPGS

SMILES | hERG current change (%, negative = inhibition) at 10uM [%]
NC(=O)C1CCN(C(c2ccccc2)c2nnnn2C2CCCC2)CC1 (centres unmarked) | -2.5
CN(C)c1ccc(/C=N/NC(=O)CNC(=O)c2ccc3c(c2)OCCO3)cc1 | 6.4
CC1CC(C)CN(c2ccc(-n3cnnn3)cc2[N+](=O)[O-])C1 (centres unmarked) | -18.4
CCCn1c(N)c(N(CCOC)C(=O)CSc2cc(C)c3cccc(C)c3n2)c(=O)[nH]c1=O | -3.56
Cc1ccccc1OCCn1cc(/C(N)=N/O)c2ccccc21 | 15.2
CCCC(C(=O)NCc1ccco1)N(C(=O)CNS(=O)(=O)c1ccccc1)c1ccc(OC)cc1 (centres unmarked) | -30.5
COC(=O)c1ccc(NC(=O)CSc2nncn2-c2ccccn2)cc1 | 18.2
CCCC[C@@H]1CCCO[C@@](C(=O)NCc2ccccn2)(C(F)(F)F)C1 | -7.17
CCOC(=O)c1ccc2c(c1)nc(COc1ccc3ccccc3c1)n2CC | 3.73
CN(CCOc1ccccc1)C(=O)C1CCC(=O)N(CCN2CCOCC2)C1 (centres unmarked) | 16.5
COc1ccc(-c2noc(COc3ccc4ccccc4c3Br)n2)cc1OC | -0.635
O=c1oc(-c2cccs2)nc2c1cnn2-c1ccccc1 | -3.72
O=C(CCCOc1ccccc1)N1CCN(c2ccccc2)CC1 | -32.6
Cc1nc(NNC(=O)c2ccccc2)cc(-c2ccccc2)n1 | 3.7
Cc1cccc(-n2c3nc(=O)[nH]c(=O)c-3cc3c(C)nn(-c4ccccc4)c32)c1C | 17.4
O[C@H]1C2CCC1C(N1CCCCC1)CC2 (some centres unmarked) | 3.42
CCC(=O)N1N=C(c2ccc(NS(C)(=O)=O)cc2)CC1c1ccc(N(C)C)cc1 (centres unmarked) | -66.2
CCOC(=O)c1c(NC(=O)c2cccnc2Cl)sc(C(=O)N(C)C)c1C | -27.1
CCN(Cc1ccccc1)S(=O)(=O)c1ccc(C(=O)Nc2nnc(C)o2)cc1 | -14
CCCn1nnnc1SCC(=O)NCc1ccc(OC)cc1 | 2.58
COc1ccc(-c2noc(CCC(=O)Nc3cc(OC)ccc3OC)n2)cc1 | -14.7
Oc1c(Br)cc(Br)cc1CNc1cccc2cccnc12 | -27.4

SMILES | hERG current change (%, negative = inhibition) at 10uM [%]
Cc1cc(-c2ccccc2C(=O)Nc2ccccc2O)on1 | 4.73
COc1ccc(/C=N/n2c(C)nnc2C)c(OC)c1 | 7.7
CCCCNC(=O)OCCNC(=O)Oc1cccc(C)c1 | -10.9
Cc1nn(C)c(Oc2ccccc2)c1CCNC(=O)CCl | 35.6
COCCNC(=O)/C(C#N)=C/c1c(N2CCN(C)CC2)nc2ccccn2c1=O | 17.6
CCCCCCn1c(CN2CCCCC2)nc2c1c(=O)n(C)c(=O)n2C | -35.7
CC1(C(=O)Nc2ccccc2)Cc2ccccc2C(=O)O1 (centres unmarked) | -1.99
CCc1ccccc1NC(=O)/C(=C/c1ccccc1)c1ccccc1 | -11.7
CC(=O)NCCn1c(SCc2cc(F)ccc2F)nc2ccccc2c1=O | -2.33
c1ccn(-c2ccc(N3CCOCC3)cc2)c1 | -1.83
Oc1ccccc1CN1CCCN(Cc2ccccc2O)C1 | -4.16
S=c1c2c(nc3nc[nH]n13)CCC2 | 16.4
C/C=C\C=C\C(=O)N1CC2(CC(c3cccc(NC(=O)CC)c3)=NO2)C[C@H]1C(N)=O (some centres unmarked) | 1.38
CCc1ccc(S(=O)(=O)Nc2c(C)n(C)n(-c3ccccc3)c2=O)cc1 | -2.47
COc1ccc(C(NC(=O)c2cccnc2)c2cc(Cl)c3cccnc3c2O)cc1OC (centres unmarked) | 10.5
CCOc1ccc(S(=O)(=O)NCCC(=O)NCCOc2ccccc2)cc1 | -20.1
CCC1CCCCN1C(=O)CCS(=O)(=O)c1ccc2c(c1)CCN2C(C)=O (centres unmarked) | 11.1
O=[N+]([O-])c1ccc(-c2cn3ccccc3n2)cc1 | 4.52
O=C(CSc1nc(Nc2ccccc2)nc(N2CCOCC2)n1)Nc1ccc(Br)cc1F | 12
CCOc1ccc(C(=O)Nc2ccc(NC(=O)c3ccccc3)c(C)c2)cc1[N+](=O)[O-] | 13.5
CCC(=O)Nc1cc(C(F)(F)F)ccc1N1CCCC1 | 1.46
CCN(CC)CC(=O)Nc1ccc(-c2ccc(NC(=O)CN(CC)CC)c(OC)c2)cc1OC | 10.7
